The whole screen tested about 420,000 compounds, of which about 50,000 (12%) were called active. The inconclusive results got no clear call from the source; some entries with a clear call stand among them for comparison. Calls follow the shape of the dose curve; as a rule, active = well fitted inhibition curve with a large enough effect; inconclusive = small, poorly fitted or top-dose-only effect; inactive = flat fitted curve, though single readings scatter. Potencies of inconclusive entries are left out as doubtful fits.
Assay: qHTS for Inhibitors of human tyrosyl-DNA phosphodiesterase 1 (TDP1): qHTS in cells in presence of CPT; also: nearly all actives have a fitted effect of over 55% in size
Details: chicken DT40 Tdp1-/-;hTDP1 cells + 20 nM CPT, ATP luminescence, 48 h; series mostly up to 46.2 µM
Summary of the method: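 Chicken DT40 Tdp1-/- cells stably complemented with human TDP1 were seeded at 400 cells/well in medium containing 20 nM camptothecin, exposed to pin-transferred compounds, and grown at 37 °C for at least 48 hr. Viability was read as ATP luminescence.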
Potency is read from the fitted curve at half-maximal effect; tags tell the direction and shape of the fitted curve.

Q: With `CCn1c(SCC(=O)Nc2ccccc2OC)nc2ccccc2c1=O` as the compound, how does the Potency read?
A: inconclusive [inhibitor, single point]

Q: Which Potency does the source give for `CCC(=O)N1CCN(c2ccc(NC(=O)COc3ccccc3[N+](=O)[O-])cc2)CC1` here?
A: active: 14.6 µM

Q: For `CC(Oc1ccc(Br)cc1)C(=O)NCC(C)(C)N1CCOCC1` (stereo not given), which Potency is on record?
A: inactive

Q: Which Potency does the source give for `CCN1CCc2c(sc(NC(=S)NC(=O)c3ccccc3)c2C#N)C1` here?
A: inconclusive [inhibitor, single point]

Q: For `Cc1nn(Cc2ccc(C(=O)Nc3nc4c(C)cccc4s3)o2)c(C)c1Br`, which Potency is on record?
A: inconclusive [inhibitor, single point]

Q: Which Potency does the source give for `Cc1cc2ccccn2c1C(=O)c1cccc(F)c1` here?
A: inactive

Q: With `Cc1cccc(-c2n[nH]c(=S)n2C)c1` as the compound, how does the Potency read?
A: inactive

Q: Which Potency does the source give for `CC(C)(C)NC(=O)C(c1ccc(C#N)cc1)n1c(=O)c(-c2cc3ccccc3[nH]2)nc2ccccc21` (stereo not given) here?
A: inconclusive [inhibitor, single point]

Q: For `Cn1nc(N)c2c(-c3ccc(Cl)cc3)c(C#N)c(N)nc21`, which Potency is on record?
A: inconclusive [inhibitor, partial curve]

Q: Which Potency does the source give for `CCC1CCc2c(sc3nc(SCC(=O)NCc4ccco4)n(-c4ccccc4)c(=O)c23)C1` (stereo not given) here?
A: active: 29.1 µM

Q: With `COc1ccc(C(CNC(=O)C(=O)Nc2ccc3c(c2)OCO3)N2CCN(C)CC2)cc1` (stereo not given) as the compound, how does the Potency read?
A: inconclusive [inhibitor, single point]

Q: Which Potency does the source give for `O=c1cc(N2CCN(Cc3ccccc3)CC2)c(-c2ccccc2)n[nH]1` here?
A: inconclusive [inhibitor, single point]

Q: Which Potency does the source give for `CN(C)c1ccc(CNC(=O)C2Cc3c(-c4cccc(C(N)=O)c4)ccnc3O2)cc1` (stereo not given) here?
A: inconclusive [inhibitor, partial curve, poor fit]

Q: Which Potency does the source give for `Cc1c(C(=O)N2CCC(Cc3ccccc3)CC2)cccc1[N+](=O)[O-]` here?
A: inconclusive [inhibitor, single point]

Q: For `CCOc1ccc(-c2cc(C(=O)NCCCn3ccnc3)c3cc(Br)ccc3n2)cc1`, which Potency is on record?
A: active: 11.6 µM

Q: Which Potency does the source give for `Cc1ccc(/C=C/c2nc3ccccc3c(=O)[nH]2)cc1` here?
A: inconclusive [inhibitor, partial curve]

Q: Which Potency does the source give for `CC1(C(=O)Nc2ccccc2)Cc2c(-c3cccc(C(F)(F)F)c3)ccnc2O1` (stereo not given) here?
A: inconclusive [inhibitor, single point]

Q: Which Potency does the source give for `NC(=O)Cc1nc(-c2ccc(Br)cc2)cs1` here?
A: inactive

Q: For `CCOC(=O)c1c(C)oc2nc(C)nc(Nc3cccc(OC)c3)c12`, which Potency is on record?
A: inactive

Q: For `COc1ccccc1NC(=S)NNC(=O)c1nn(C)c(C)c1Br`, which Potency is on record?
A: inconclusive [inhibitor, single point]
